# Screen size: about 310,000 compounds; about 2,200 (0.71%) showed an effect of 50% or more. The effect is printed as a negative number. This is one part of the list.
# Biological target: human ether-à-go-go-related gene (hERG) potassium channel (human, UniProt Q12809)
# Assay: primary screen, population patch clamp on CHO cells stably expressing hERG
# Chain of human ether-à-go-go-related gene (hERG) potassium channel (Q12809 whole entry, looked up): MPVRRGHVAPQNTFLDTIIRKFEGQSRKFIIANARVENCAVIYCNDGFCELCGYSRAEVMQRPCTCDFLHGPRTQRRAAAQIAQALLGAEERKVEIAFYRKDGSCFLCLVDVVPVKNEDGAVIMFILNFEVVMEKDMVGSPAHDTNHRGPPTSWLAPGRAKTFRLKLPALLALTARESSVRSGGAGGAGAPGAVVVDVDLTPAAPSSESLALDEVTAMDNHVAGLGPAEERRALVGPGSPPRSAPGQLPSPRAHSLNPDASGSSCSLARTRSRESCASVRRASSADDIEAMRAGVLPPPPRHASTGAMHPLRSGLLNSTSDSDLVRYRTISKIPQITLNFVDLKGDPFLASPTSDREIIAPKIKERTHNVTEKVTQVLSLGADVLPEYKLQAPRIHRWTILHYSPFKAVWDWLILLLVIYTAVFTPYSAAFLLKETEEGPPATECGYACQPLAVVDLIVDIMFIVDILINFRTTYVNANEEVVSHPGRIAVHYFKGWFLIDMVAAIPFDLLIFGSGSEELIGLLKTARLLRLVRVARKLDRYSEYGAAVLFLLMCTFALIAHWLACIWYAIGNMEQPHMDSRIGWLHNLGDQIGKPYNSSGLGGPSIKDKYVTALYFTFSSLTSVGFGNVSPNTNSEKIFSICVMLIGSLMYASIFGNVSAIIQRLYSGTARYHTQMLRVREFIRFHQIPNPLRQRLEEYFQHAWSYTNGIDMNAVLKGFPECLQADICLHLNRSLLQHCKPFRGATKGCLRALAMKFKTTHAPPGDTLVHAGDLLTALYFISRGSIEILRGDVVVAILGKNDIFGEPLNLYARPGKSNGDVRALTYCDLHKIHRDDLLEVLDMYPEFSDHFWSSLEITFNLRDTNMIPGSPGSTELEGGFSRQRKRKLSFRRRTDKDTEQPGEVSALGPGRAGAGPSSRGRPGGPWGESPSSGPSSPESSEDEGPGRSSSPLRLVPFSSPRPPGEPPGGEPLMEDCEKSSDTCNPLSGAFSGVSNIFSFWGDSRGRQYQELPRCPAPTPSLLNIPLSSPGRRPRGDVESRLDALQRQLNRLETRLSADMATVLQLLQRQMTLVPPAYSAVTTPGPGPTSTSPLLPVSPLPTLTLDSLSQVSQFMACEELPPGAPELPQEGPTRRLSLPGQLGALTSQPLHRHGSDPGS
row,SMILES,"hERG current change (%, negative = inhibition) at 1uM"
1,CCCC(=O)N1CCCC(C(=O)c2ccc(OC)c(OC)c2)C1 (stereo not shown),11.9%
2,COC(=O)C1=C(C)N(Cc2ccccc2)C(=NCCCCO)N[C@H]1CCc1ccccc1,-2.94%
3,Cc1onc(-c2ccccc2)c1C(=O)Nc1ccc(N2CCOCC2)cc1,12.5%
4,CC/C(=N/NC(=O)c1ccc(Br)o1)c1ccc(Cl)cc1,13.6%
5,COc1ccc(N2CC(C(=O)NC3CCCCC3)CC2=O)cc1 (stereo not shown),9.1%
6,CCC(CO)NC1=CC(=O)CCC1 (stereo not shown),8.31%
7,Cc1cccc(C(=O)NC2CCN(CC(=O)NCc3cccs3)CC2)c1,2.82%
8,COc1ccc(CNC(=O)CN(Cc2ccco2)C(=O)CCC(=O)Nc2ccccn2)cc1,-11.5%
9,CCn1cc(C(=O)O)c(=O)c2cc(F)c(N/N=C/c3ccccc3)cc21,-4.52%
10,O=C(O)C(=O)O.c1ccc(Cc2ccc(OCCCNC3CCCC3)cc2)cc1,-3.05%
11,CC(C)N=C(Nc1ccc(Cl)cc1)c1cccnc1,9.22%
12,Cc1ccc(OCc2cc(C(=O)NCCn3cccn3)no2)cc1C,20.8%
13,COc1ccc(C(=O)NNC(=O)CSc2nc3c(c(=O)n(C)c(=O)n3C)n2C)cc1,6.17%
14,O=C(C1CCCCC1)N1CCC(CO)(Cc2ccccc2Cl)CC1,-3.15%
15,O=C(Nc1ccc(S(=O)(=O)N2CCCCCC2)cc1)c1ccco1,-3.51%
16,COc1cc(NC(=O)c2cccc([N+](=O)[O-])c2)ccc1NC(=O)c1ccco1,0.199%
17,NS(=O)(=O)c1ccc(CCNC(=O)CNS(=O)(=O)c2cccc(Br)c2)cc1,18.5%
18,CCOc1ccc(N(CC(=O)NC2CCCCC2)C(=O)CCC(=O)Nc2ccccn2)cc1,-14.6%
19,Cc1cc(N2CCCCC2)nc(N2CCOCC2)n1,-2.4%
20,COC(=O)[C@H](CC(C)C)NCc1cccc(CN[C@@H](CC(C)C)C(=O)OC)c1,5.69%
21,COc1ccc(Br)cc1CN1CCN(Cc2c[nH]c3ccccc23)CC1.O=C(O)C(=O)O,4.08%
22,COc1ccccc1OCCC(=O)OCC(=O)Nc1ccc(Br)cc1,3.89%

row,SMILES,"hERG current change (%, negative = inhibition) at 1uM"
1,COc1ccc(CCNC(=O)CCCCCNc2nc(=S)[nH]c3ccccc23)cc1OC,4.57%
2,Nc1nc2ccc(C(=O)Nc3ccccc3)cc2s1,16%
3,Cc1cccc(OCc2nnc(SCC(=O)O)n2-c2ccccc2)c1,13%
4,CCC(=O)N1c2ccccc2NC2=C(C(=O)CCC2)C1c1cccnc1 (stereo not shown),12.9%
5,CC(=O)O[C@]1(C(C)=O)CCC2C3CCC4=C/C(=N/OCC(=O)O)CC[C@]4(C)C3CC[C@@]21C (stereo partly shown),12.2%
6,CC(Oc1ccc(Cl)cc1)C(=O)N(C)CC(=O)Nc1ccc(N2CCOCC2)cc1 (stereo not shown),15.4%
7,COc1ccccc1-n1cnnc1SCC(=O)NCC1CCCO1 (stereo not shown),15.1%
8,O=C1CSC(=Nc2ccc(O)cc2)N1,14.8%
9,CCCSc1nnc(Cn2c(=O)sc3ccccc32)n1C,1.21%
10,CCCN1CCC(NC(=O)Nc2ccccc2C(=O)OC)CC1,-2.51%
11,CCc1cc(=O)oc2cc(C)c(CN3CCCCC3)c(O)c12,6.09%
12,Cc1cccc2c1-c1sc(C(=O)NCCCN3CCC(C)CC3)cc1CO2,-5.27%
13,O=C(CC(SCCO)c1ccc(F)cc1)c1ccco1 (stereo not shown),10.1%
14,CC12CCC3C(CCC4C/C(=N/O)CCC43C)C1CCC2O (stereo not shown),-4.25%
15,COc1c(C)cc(Br)cc1C(=O)NCc1cccnc1,-2.49%
16,Cc1ccc(NC(=O)N2CCC(NC(=O)c3cccc(C)c3)CC2)cc1,1.63%
17,COc1ccccc1C(=O)NC(=S)Nc1cccc2cc(O)ccc12,16.6%
18,CC(=O)Cc1nsc(NC(=O)c2ccc(COc3ccccc3)o2)n1,-0.614%
19,O=C(CCn1c(=O)c2ccccc2n(CC(=O)NCCC2=CCCCC2)c1=O)NCc1ccco1,9.69%
20,CN(C)S(=O)(=O)c1cccc(N=c2scc(-c3ccc4c(c3)NC(=O)CO4)n2CC2CCCO2)c1 (stereo not shown),-5.6%
21,O=C(c1cnc2ccc3ccccc3c2c1)c1cc(F)ccc1O,14.8%
22,O=C(NCCCn1ccnc1)c1ccc(NS(=O)(=O)c2cccc([N+](=O)[O-])c2)cc1,6.9%

row,SMILES,"hERG current change (%, negative = inhibition) at 1uM"
1,CC(C(=O)NC(=O)NC1CCCCC1)N1CCN(c2ccc(O)cc2)CC1 (stereo not shown),-7.14%
2,O=C(COC(=O)c1ccc2ccccc2n1)Nc1ncc(C(F)(F)F)cc1Cl,7.36%
3,Cc1cc(C)c2c(N=NN3CCCCC3)[nH]nc2n1,11.2%
4,Cc1nnc(NC(=O)CSc2nc3c(c(=O)n2C)SC(C)C3)s1 (stereo not shown),12.3%
5,COc1ccc(C)cc1NC(=O)NCc1ccccn1,9.05%
6,CCc1ccccc1NS(=O)(=O)c1ccc(SC)cc1,17.6%
7,CCOc1ccc(CCNC(=O)COC(=O)C2CCN(S(=O)(=O)c3ccc(C)c(C)c3)CC2)cc1OCC,10.6%
8,Cc1cc(NC(=O)Cn2c(C)nc3ccccc3c2=O)ccc1Br,4.29%
9,CCC(=O)Nc1ccc2c(c1)nc(CCNC(=O)c1ccco1)n2C,14.7%
10,O=C(NCCc1ccc(C(F)(F)F)cc1)C1CCC(=O)N(C2CC2)C1 (stereo not shown),-13%
11,O=C(O)CCC(=O)N1N=C(c2cccs2)CC1c1cccc([N+](=O)[O-])c1 (stereo not shown),17.8%
12,CCC(=O)Nc1nc2ccc(NC(C)=O)cc2s1,13.8%
13,COc1ccc(NC(=O)C2CCC(C(C)(C)C)CC2)cc1S(=O)(=O)N1CCOCC1 (stereo not shown),7.23%
14,CCCn1c(SCC(=O)NC23CC4CC(CC(C4)C2)C3)n[nH]c1=O,7.11%
15,O=C(CCC(=O)N/N=C/c1ccc(Br)s1)NCc1ccccc1,9.94%
16,O=C1CC(c2cc([N+](=O)[O-])ccc2Cl)c2c(ccc3ccccc23)N1 (stereo not shown),-32.9%
17,Cc1cc(NC(=O)c2cccc(F)c2)no1,1.59%
18,O=C(O)C1CCCN(S(=O)(=O)c2cccc3cccnc23)C1 (stereo not shown),11%
19,Cc1ccc(C)c(C(=O)CSc2n[nH]c(C(C)C)n2)c1,9.89%
20,CC(=O)C1=C(O)C(=O)N(c2ccccn2)C1c1cccc(F)c1 (stereo not shown),8.1%
21,Cc1cnc(NC(=O)COc2cccc3c2OC(C)(C)C3)s1,13.4%
22,O=C(N/N=C/c1ccccc1Cl)c1[nH]c2ccc(Br)cc2c1-c1ccccc1,12.1%

row,SMILES,"hERG current change (%, negative = inhibition) at 1uM"
1,COc1cc(C(=O)NCc2nnc(SCC(=O)NCc3ccco3)o2)cc(OC)c1OC,15.9%
2,Cc1cc(Br)ccc1OCC(=O)N1CCCCCC1,6.68%
3,CC(=O)c1c(N2CCOCC2)nc(=S)n(-c2cc(C)ccc2C)c1C,8.51%
4,O=C(c1ccccc1)N1CCN(C2c3cccc4cccc(c34)C2NS(=O)(=O)c2ccccc2)CC1 (stereo not shown),-2.44%
5,Cc1ccc(NC(=O)c2sc(N)nc2-c2ccc([N+](=O)[O-])cc2)cc1C,13.5%
6,COCCCNC(=O)COc1ccc2oc3c(c2c1)CCCC3,9.3%
7,O=C(N/N=C/c1cn(-c2cccs2)nc1-c1ccccc1)c1ccccc1O,19.6%
8,Cn1c(CNC(=O)CNS(=O)(=O)c2ccc(Cl)cc2)cc(=O)n(C)c1=O,23.8%
9,C=C1CCC2[C@](C)(CO)[C@H](O)CC[C@@]2(C)[C@@H]1/C=C/C1=CCOC1=O (stereo partly shown),9.77%
10,Cc1ccc(C(=O)CCC(=O)N2CCN(c3ccc(F)cc3)CC2)cc1,6.83%
11,CCOC(=O)c1ccc(NC(=S)N2CCN(C)CC2)cc1,15.8%
12,O=C(Nc1cc(Cl)cc(Cl)c1)C1CCCC1,16.5%
13,COc1ccc(CCN2C(=O)N(c3ccc(OC)cc3)C(=O)C2CC(=O)Nc2ccccc2)cc1 (stereo not shown),-8.53%
14,Cc1ccccc1N(Cc1cc(=O)[nH]c2ccccc12)C(=O)CCl,17.6%
15,CCOC(=O)CSc1n[nH]c(NC(=O)c2ccc(F)cc2)n1,-4.14%
16,CCc1nc2ccc(C(=O)N3CCN(c4ccc([N+](=O)[O-])cc4)CC3)cc2nc1CC,-38.2%
17,CC(=NCC1CCCO1)c1c(O)n(-c2ccccc2)c(=O)[nH]c1=O (stereo not shown),3.99%
18,O=C(NCc1ccc(F)cc1)c1cnc(-c2ccccn2)nc1C(F)(F)F,1.81%
19,CCOC(=O)N1CCN(C(=O)COC(=O)c2cccc(C)c2[N+](=O)[O-])CC1,2.22%
20,CCC(Cc1ccccc1)NC(=O)C1CCN(S(=O)(=O)c2c(C)noc2C)CC1 (stereo not shown),11.7%
21,Cc1ccc(S(=O)(=O)N2CCN(CC(=O)N/N=C\c3ccc(Cl)c([N+](=O)[O-])c3)CC2)cc1,8.54%
22,Cc1cccc(-c2n[nH]c(=S)n2/N=C/C=C/c2ccco2)c1,12.8%
